The supplement of paper PMC12217912
The other results are listed elsewhere or left out. Sequences were assembled here from the parent chain. Inactive controls read about 0.05.

B1: TEV protease; numbered along this chain (parent)
chain: MGESLFKGPRDYNPISSSICHLTNESDGHTTSLYGIGFGPFIITNKHLFRRNNGTLVVQSLHGVFKVKDTTTLQQHLVDGRDMIIIRMPKDFPPFPQKLKFREPQREERICLVTTNFQTKSMSSMVSDTSCTFPSGDGIFWKHWIQTKDGQCGSPLVSTRDGFIVGIHSASNFTNTNNYFTSVPKNFMELLTNQEAQQWVSGWRLNADSVLWGGHKVFMVKPEEPFQPVKEATQL

Variants of: B1
Assay: raw area under fraction-flipped curve 0-4 h after induction (AUC4h, not background-subtracted), DNA-recorder readout of cleavage of the substrate (dimensionless); higher = more cleavage of the substrate by the protease variant
Settings: temperature: 34 °C; time window: 0-4 h after rhamnose induction
Experimental: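 In vivo DNA recorder in E. coli TOP10(DE3) ΔrhaA at 34 °C. Each TEVp single-site mutant (parent TEVp 0) is paired with a single-site variant of the 7-mer TEVs (canonical ENLYFQ|S). The substrate sits between flexible linkers in a Bxb1-sfGFP-TEVs-SsrA fusion, so cleavage stabilises Bxb1 and speeds flipping of a recombination array, read by NGS. The value is the raw area under the fraction-flipped curve over 0-4 h after rhamnose induction (AUC4h), with ≥20 reads per time point. It is not background-subtracted; inactive controls average about 0.047.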
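Also: Bxb1 expression induced with 0.2% (w/v) L-rhamnose at OD600 near 0.5, cultures sampled hourly, flipped fraction per protease–substrate barcode pair counted by paired-end Illumina sequencing.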

Row | Variant | area with substrate EALYFQS | area with substrate ECLYFQS | area with substrate EDLYFQS | area with substrate EHLYFQS | area with substrate EILYFQS | area with substrate EKLYFQS | area with substrate ELLYFQS | area with substrate EMLYFQS | area with substrate EPLYFQS | area with substrate EQLYFQS | area with substrate ERLYFQS | area with substrate ESLYFQS | area with substrate EVLYFQS | area with substrate EWLYFQS | area with substrate EYLYFQS | area with substrate EELYFQS | area with substrate ETLYFQS | area with substrate EGLYFQS | area with substrate EFLYFQS
1 | T31W | 0.138 | 0.098 | 0.169 | 0.101 | 0.094 | 0.114 | 0.084 | 0.0831 | 0.101 | 0.111 | 0.0796 | 0.0915 | 0.108 | 0.076 | 0.1 | – | – | – | –
2 | K148G | 0.111 | – | 0.104 | 0.0639 | 0.0754 | 0.0464 | 0.0725 | 0.0983 | – | 0.0927 | 0.0769 | 0.0872 | 0.083 | 0.0561 | – | 0.0845 | 0.0778 | – | –
3 | D137R | 0.0951 | – | 0.104 | 0.0829 | – | – | – | 0.0831 | 0.087 | 0.0846 | 0.0888 | 0.0838 | 0.0725 | – | – | – | 0.0822 | 0.0755 | –
4 | T23R | 0.0942 | 0.0932 | 0.0966 | 0.0802 | 0.0787 | 0.086 | – | 0.111 | 0.114 | 0.129 | – | 0.0993 | 0.0849 | 0.0944 | – | 0.119 | – | 0.093 | –
5 | L33P | 0.0377 | 0.0538 | 0.0528 | 0.0368 | 0.0394 | – | 0.0569 | 0.0416 | – | 0.04 | 0.0313 | 0.0492 | 0.0491 | 0.0481 | 0.0565 | – | 0.0511 | 0.0518 | –
6 | V78C | 0.126 | 0.0977 | 0.0579 | 0.12 | 0.095 | 0.0998 | 0.101 | 0.14 | 0.104 | 0.108 | 0.0827 | 0.107 | 0.107 | 0.0768 | 0.105 | 0.116 | 0.119 | 0.0897 | –
7 | H215W | 0.0399 | 0.0827 | 0.0602 | – | 0.0651 | 0.0255 | 0.0513 | 0.0693 | 0.0429 | – | 0.075 | 0.0645 | 0.0723 | 0.0929 | – | – | 0.107 | 0.0587 | 0.0555
8 | T72D | 0.146 | 0.0963 | 0.129 | 0.0901 | 0.08 | 0.0989 | 0.0727 | 0.105 | 0.116 | 0.108 | 0.0889 | 0.0979 | 0.0941 | – | 0.0564 | – | 0.115 | 0.0775 | 0.103
9 | E223T | 0.0558 | 0.112 | 0.124 | – | 0.0713 | 0.0765 | 0.0853 | 0.096 | 0.0972 | 0.103 | 0.0826 | 0.0982 | – | – | 0.0854 | 0.112 | – | 0.149 | –
10 | D161K | 0.0538 | 0.0638 | 0.0812 | 0.0621 | 0.0581 | 0.0646 | 0.0598 | 0.0578 | 0.067 | 0.0672 | 0.0693 | 0.0568 | 0.0578 | 0.0755 | 0.0516 | 0.0673 | 0.0637 | 0.0488 | –
11 | V157A | 0.0548 | – | 0.104 | 0.0821 | – | 0.068 | 0.0925 | 0.0871 | – | 0.129 | – | 0.134 | 0.0928 | 0.086 | 0.0863 | – | – | 0.0813 | 0.0895
12 | T181M | 0.0715 | 0.0641 | – | 0.0763 | – | 0.0691 | 0.0598 | – | 0.0819 | 0.072 | – | 0.085 | 0.0701 | 0.0697 | 0.0761 | 0.0617 | 0.0817 | 0.0663 | –
